The structures appear in SMILES notation.

The assay has as its system Cellulase aus T. reesei. The note with it: result in words.

`OCCN1C[C@H](O)[C@@H](O)[C@H](O)[C@H]1CO` [AI-2, Miglitol]: the “Hemmung der Cellulase-Aktivität” value is recorded as “konnte weder die im Handel erhältlichen Amylasen bzw. Cellulasen der verschiedenen Mikroorganismen noch die von Fusarium graminearum in vitro oder in der Pflanze gebildeten Amylasen inhibieren”.

The values above are taken from patent EP2145538A1 (priority 2008, dated 2010).
